About 14,000 (4.5%) of roughly 310,000 compounds showed an effect of 50% or more. The effect is printed as a negative number. This is one part of the list.
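Further: peak tail current of the secondary pulse compared with the same well before compound.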

This test deals with human ether-à-go-go-related gene (hERG) potassium channel (human, UniProt Q12809). The experiment in a line: primary screen, population patch clamp on CHO cells stably expressing hERG.
human ether-à-go-go-related gene (hERG) potassium channel, sequence (Q12809 whole entry, looked up): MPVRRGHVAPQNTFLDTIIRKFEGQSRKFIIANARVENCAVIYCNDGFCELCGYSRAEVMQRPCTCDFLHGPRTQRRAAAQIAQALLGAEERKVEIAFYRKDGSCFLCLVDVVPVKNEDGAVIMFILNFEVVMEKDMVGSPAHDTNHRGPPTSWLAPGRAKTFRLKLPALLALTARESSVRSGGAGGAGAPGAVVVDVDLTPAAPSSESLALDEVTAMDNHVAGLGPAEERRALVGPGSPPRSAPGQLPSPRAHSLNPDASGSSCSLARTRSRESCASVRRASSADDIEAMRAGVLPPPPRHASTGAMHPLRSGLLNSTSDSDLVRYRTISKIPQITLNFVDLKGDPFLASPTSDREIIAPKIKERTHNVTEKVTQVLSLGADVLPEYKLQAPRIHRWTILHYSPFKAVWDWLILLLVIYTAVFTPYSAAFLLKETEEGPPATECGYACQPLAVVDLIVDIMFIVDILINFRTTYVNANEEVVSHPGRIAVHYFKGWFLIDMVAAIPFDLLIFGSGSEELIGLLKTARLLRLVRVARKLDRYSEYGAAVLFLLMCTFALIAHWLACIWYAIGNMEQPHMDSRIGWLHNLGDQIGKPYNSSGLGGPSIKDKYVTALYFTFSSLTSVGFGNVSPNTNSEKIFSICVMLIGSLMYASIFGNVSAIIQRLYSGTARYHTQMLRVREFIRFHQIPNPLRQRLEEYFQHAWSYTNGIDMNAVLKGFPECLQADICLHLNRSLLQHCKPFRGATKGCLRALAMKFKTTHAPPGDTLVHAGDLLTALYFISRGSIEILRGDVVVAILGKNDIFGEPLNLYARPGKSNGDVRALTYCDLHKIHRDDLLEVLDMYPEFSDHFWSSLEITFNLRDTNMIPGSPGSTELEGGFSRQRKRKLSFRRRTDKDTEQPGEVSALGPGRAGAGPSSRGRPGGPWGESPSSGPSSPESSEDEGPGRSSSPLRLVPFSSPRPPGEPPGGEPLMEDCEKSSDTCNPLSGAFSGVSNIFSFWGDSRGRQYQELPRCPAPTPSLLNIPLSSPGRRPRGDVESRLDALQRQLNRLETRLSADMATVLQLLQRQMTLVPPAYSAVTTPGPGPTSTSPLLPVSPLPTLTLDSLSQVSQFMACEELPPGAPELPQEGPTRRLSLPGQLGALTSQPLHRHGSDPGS
Turning to `CC(C)n1c(C(O)c2ccc3c(c2)OCO3)nc2ccccc21` (centres unmarked), the “hERG current change (%, negative = inhibition) at 10uM” value was determined as 0.158%. The value for `C/C(=C\c1cc(C(=O)O)c(C)o1)CO` was 12.9%. Take `Cc1ccc(NC(=O)NNC(=O)c2cc3ccccc3cc2O)cc1C`: the “hERG current change (%, negative = inhibition) at 10uM” value is recorded as 23.7%.

As for `Cl.O=C(NCCc1ccccn1)c1cc(-c2cccc3ccccc23)nc2ccccc12`, the “hERG current change (%, negative = inhibition) at 10uM” value was -27.1%. The value for `CCOC(=O)CSc1nnc(Cc2cc(=O)[nH]c(=O)[nH]2)n1-c1ccc(Cl)cc1` was 8.02%; that for `CC(C)OC(=O)CSc1nnc2c3ccccc3n(C)c2n1` was -1.35%. Next, `CCN(CC)C(=O)C1CCN(S(=O)(=O)c2ccc(-n3cnnn3)cc2)CC1`: -30%; `O=C(NCCc1ccco1)c1cc(COc2cccc(C(F)(F)F)c2)on1`: 2.44%. The value for `C[C@H](NC(=O)c1ccccc1)C(=O)Nc1nc(-c2ccccn2)cs1` was 19.2%; that for `CC(C)(C)NC(=O)CSc1nc2ccc(NC(=O)CSc3nnnn3Cc3ccccc3)cc2s1` was 6.17%. As for `Cc1ccc(C(=O)NCc2occc2C(=O)O)o1`, the “hERG current change (%, negative = inhibition) at 10uM” value is given as 10.2%. Next, `CCNC(=O)C1CC(=O)N(CCCc2ccccc2)C(=Nc2ccccc2)S1` (centres unmarked): 11.4%; `COc1cccc(COC(=O)c2ccc3c(c2)NC(=O)C(C)S3)c1OC` (centres unmarked): 18.4%; `O=C(COc1cccc(NC(=O)c2ccccc2)c1)c1ccc(F)cc1`: -26%. Next, `O=C(CSc1nnnn1Cc1ccccc1)Nc1cccc(F)c1`: 7.09%; `Cc1ccc(C(=O)N2CCCC2)c(F)c1F`: -14.2%; `CN1C(=O)c2ccc(C(=O)NC3CCCCC3)cc2C1=O`: 11.2%. Next, `Cc1cccc(NC(=O)c2nc[nH]c2C(=O)NCC(=O)OCc2ccccc2)c1`: 9.54%; `O=C(Cn1c(=O)oc2ccccc21)NC(=O)NCc1ccco1`: 17.1%; `COc1ccc(NC(=O)CCCSc2nc(-c3ccco3)cc(C(F)(F)F)n2)cc1OC`: 12.1%. Turning to `Cc1cc(C)nc(SCC(=O)Nc2ccnc3ccccc23)n1`, the “hERG current change (%, negative = inhibition) at 10uM” value is 11.1%.

`COc1ccccc1-c1nnc(SC(C)C(=O)Nc2ccc(C(N)=O)cc2)o1` (centres unmarked): the “hERG current change (%, negative = inhibition) at 10uM” value was 8.39%. With `COc1ccc(NC(=O)COc2nc3ccccc3nc2N2CCOCC2)c(OC)c1`, the “hERG current change (%, negative = inhibition) at 10uM” value amounted to 12.3%. Take `O=C(Nc1nc(-c2ccncc2)cs1)c1ccc(S(=O)(=O)N2CCOCC2)cc1`: the “hERG current change (%, negative = inhibition) at 10uM” value is given as -0.166%. As to `CCOc1ccc(C2C(C(=O)c3ccc(C)o3)=C(O)C(=O)N2c2nc(C)c(C(=O)OC)s2)cc1` (centres unmarked), the “hERG current change (%, negative = inhibition) at 10uM” value turned out to be 9.24%. Consider `Nc1nc(SCC(=O)Nc2cc(C(F)(F)F)ccc2N2CCOCC2)n[nH]1`, for which the “hERG current change (%, negative = inhibition) at 10uM” value worked out at 16.1%. On to `O=C(O)C1Sc2[nH]c(=O)sc2C2c3cc(Cl)ccc3OC(=O)C12` (centres unmarked), for which the “hERG current change (%, negative = inhibition) at 10uM” value turned out to be 14.5%. Next, `Cc1cc2oc(C(=O)NCc3ccccc3)cc(=O)c2cc1C`: 9.9%; `Oc1ccccc1N1CCN(c2ncnc3scc(-c4ccc(F)cc4)c23)CC1`: 6.31%; `CN(CCC#N)c1ncnc2scc(-c3ccccc3)c12`: -26%. Next, `COc1ccccc1NC(=O)CCC(=O)OCc1ccc([N+](=O)[O-])cc1`: -44.8%; `CC(C)=C1C2CCC1C1C(=O)N(NC(=O)COc3ccc(C(C)(C)C)cc3)C(=O)C21` (centres unmarked): -1.58%. In the case of `COc1ccc(OC)c(NC(=O)CSc2nnc(-c3ccncc3)s2)c1`, the “hERG current change (%, negative = inhibition) at 10uM” value amounted to 16%. Next, `CC(=O)Nc1ccccc1NC(=O)C/C(C)=N/NC(=O)C1CCCCC1`: 18%. Next, `O=C(Cc1cccs1)Nc1nnc(CCc2ccccc2)s1`: 5.44%. The value for `COC(=O)c1ccccc1OP1(=O)COc2ccccc2OC1` was 18.3%; that for `COc1ccc2nc(/N=C(\N)NC(=O)Nc3ccccc3)nc(C)c2c1` was -44.4%.

As for `CCNC(=O)/C(=C\c1ccc2c(c1)OCO2)NC(=O)c1ccc(Br)cc1`, the “hERG current change (%, negative = inhibition) at 10uM” value was -69.7%. Next, `COc1ccc(OC)c(S(=O)(=O)Nc2cccc(F)c2)c1`: -7.42%; `Cc1ccc(-c2nnc(OCCN3CCOCC3)c3ccccc23)cc1`: -43.4%; `CCOC(=O)c1ccccc1NC(=O)/C=C/c1cc(OC)c(OC)c(OC)c1`: -8.29%. Take `CNS(=O)(=O)c1cc(NC(C)=O)c(C)cc1C`: the “hERG current change (%, negative = inhibition) at 10uM” value amounted to 6.26%. Next, `COc1cc(C2c3c(oc4ccccc4c3=O)C(=O)N2c2nccs2)ccc1O` (centres unmarked): 22.9%; `Cc1c(C(=O)Nc2ccc3c(c2)OCCO3)sc2nc(-c3ccccc3)cn12`: 14.3%.

The values are drawn from article PMC4336329 (PLoS ONE, 2015).
